Assay results taken from PubChem BioAssay AID720709 (National Center for Advancing Translational Sciences (NCATS), 2013).
Where “and” joins values, the source holds several entries; their conditions need not be identical. Identical values can stand only once. The campaign covered roughly 360,000 compounds. About 520 (0.14%) were called active. The inconclusive results got no clear call from the source; some entries with a clear call stand among them for comparison. The call rests on the fitted dose curve; in most records, active means well fitted inhibition curve with a large enough effect; inconclusive means small, poorly fitted or top-dose-only effect; inactive means no such curve, though single readings can be large or run the other way. Potencies beside an inconclusive call are fits to weak or partial responses and may not hold up.

molecular target: Rap guanine nucleotide exchange factor 3 (Homo sapiens) (UniProt O95398); test: qHTS for Antagonist of cAMP-regulated guanine nucleotide exchange factor 3 (EPAC1): primary screen; conditions: EPAC1 GEF assay, Rap1b-BODIPY-GDP exchange fluorescence; activity change, negative = inhibition: at 115 µM (top of the series); further: nearly all actives have a fitted effect of over 50% in size;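 on activity change, negative = inhibition: plate controls were vehicle for no effect and positive control for full effect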
Potency means the concentration at half of the fitted maximal effect; tags describe the fitted curve by direction and shape.

Sequence of UniProt O95398 (O95398 whole entry, looked up): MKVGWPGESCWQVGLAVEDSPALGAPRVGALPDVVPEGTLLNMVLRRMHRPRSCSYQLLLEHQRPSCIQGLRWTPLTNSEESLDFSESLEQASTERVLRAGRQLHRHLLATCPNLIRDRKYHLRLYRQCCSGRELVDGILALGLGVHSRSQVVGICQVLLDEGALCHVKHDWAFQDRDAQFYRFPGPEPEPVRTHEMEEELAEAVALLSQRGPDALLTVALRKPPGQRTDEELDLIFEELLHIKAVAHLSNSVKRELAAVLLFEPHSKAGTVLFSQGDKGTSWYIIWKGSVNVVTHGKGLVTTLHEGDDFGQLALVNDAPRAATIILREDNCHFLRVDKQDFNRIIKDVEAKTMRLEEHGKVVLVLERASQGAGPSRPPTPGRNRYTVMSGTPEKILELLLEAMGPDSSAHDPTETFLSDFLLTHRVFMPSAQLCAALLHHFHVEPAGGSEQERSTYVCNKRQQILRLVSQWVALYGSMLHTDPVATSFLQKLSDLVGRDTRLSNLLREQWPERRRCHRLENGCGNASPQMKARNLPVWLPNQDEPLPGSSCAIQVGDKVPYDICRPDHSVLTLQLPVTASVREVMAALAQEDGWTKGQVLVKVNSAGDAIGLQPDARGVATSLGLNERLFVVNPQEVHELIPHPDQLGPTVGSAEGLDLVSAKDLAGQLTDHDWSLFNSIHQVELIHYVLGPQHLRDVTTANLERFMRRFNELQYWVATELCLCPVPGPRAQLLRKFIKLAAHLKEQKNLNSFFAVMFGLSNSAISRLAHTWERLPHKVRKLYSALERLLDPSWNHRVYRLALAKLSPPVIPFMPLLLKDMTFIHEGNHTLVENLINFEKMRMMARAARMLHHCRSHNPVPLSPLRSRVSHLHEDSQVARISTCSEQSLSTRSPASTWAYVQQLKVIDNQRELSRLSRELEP

SMILES | Potency | activity change, negative = inhibition
COc1cccc2cc(C(C)N(CCCN3CCOCC3)C(=S)Nc3c(C)cccc3C)oc12 (stereo unspecified) | inconclusive: 89.1 µM [inhibitor, single point] | –
CN1/C(=C/C=C/c2n(C)c3cc([N+](=O)[O-])c([N+](=O)[O-])cc3[n+]2C)C(C)(C)c2ccccc21 | inconclusive: 31.6 µM [inhibitor, partial curve] | –
O=C(c1ccccc1)N1CCN(C(=O)c2nn3c(C(F)(F)F)cc(-c4ccco4)nc3c2Br)CC1 | inconclusive: 10 µM [inhibitor, full curve] | –
CC1=C(C(=O)N(C)C)CC(CC(=O)NC(c2ccccc2)c2ccccc2)C(=O)N1Cc1ccc(C(C)(C)C)cc1 (stereo unspecified) | – | inconclusive: -30.4% [inhibitor]
CCS(=O)(=O)c1ncc(Cl)c(C(=O)Nc2ccc(S(=O)(=O)N3CCCC(C)C3)cc2)n1 (stereo unspecified) | inconclusive: 10 µM [inhibitor, full curve, poor fit] | –
CCOC(=O)c1c(NC(=O)C2C3C=CC(C3)C2C(=O)O)sc2c1CCC(CC)C2 (stereo unspecified) | inconclusive: 63.1 µM [inhibitor, partial curve, poor fit] | –
CCCCNC(=O)c1nc(-c2cc3ccccc3[nH]2)oc1-c1ccccc1 | – | inactive: -12.3%
COc1cc(C(=O)Nc2ccc(C#N)cc2)c([N+](=O)[O-])cc1OC | inconclusive: 2.82 µM [inhibitor, full curve] | –
Cc1ccnc(NC(=O)c2cccc(S(=O)(=O)N3CCN(c4ccc(F)cc4)CC3)c2)c1 | inconclusive: 31.6 µM [inhibitor, full curve] | –
O=C1C(CCc2ccccc2)ON=C(c2cnccn2)N1Cc1ccc(F)cc1 (stereo unspecified) | inconclusive: 63.1 µM [inhibitor, partial curve, poor fit] | –
Cc1ccc(OCCN2CCN(c3ncnc4sc(C)c(C)c34)CC2)cc1 | inconclusive: 89.1 µM [inhibitor, single point] | –
CC1CCN(C(=O)c2ccc(S(=O)(=O)NCc3ccco3)cc2)CC1 | – | inactive: -3.09%
COc1ccccc1CNC(=O)CCc1nnc2ccc(NCCCN3CCCC3=O)nn12 | inconclusive: 100 µM [inhibitor, single point] | –
O=C(O)C1Nc2c(O)cc(Cl)c([N+](=O)[O-])c2C2C=CCC12 (stereo unspecified) | active: 12.6 µM | –
CCCN(CCC)S(=O)(=O)c1ccc(C(=O)Nc2ccc(S(=O)(=O)Nc3nnc(CC)s3)cc2)cc1 | inconclusive: 100 µM [inhibitor, single point] | –
C[n+]1cccc2c(Br)ccc([O-])c21 | inconclusive: 70.8 µM [inhibitor, partial curve] | –
COc1ccc2c(=O)c3ccccc3oc2c1 | – | inactive: -11.9%
CC1CC1C(=O)OCC(=O)NNC(=O)c1ccc([N+](=O)[O-])cc1 (stereo unspecified) | – | inactive: 3.93%
CCc1ccccc1NC(=O)CCC(=O)N1CCN(C(C)=O)CC1 | inconclusive: 39.8 µM [inhibitor, single point] | –
COc1ccc(C(C(=O)Nc2c(C)cccc2C)N2CCN(C)CC2)cc1 (stereo unspecified) | – | inactive: 4.73%
CCNC(=S)Nc1ccc(OCc2nc3ccccc3s2)cc1 | inconclusive: 31.6 µM [inhibitor, partial curve, poor fit] | –
O=CNc1ccc(OC(=O)c2cncc(Br)c2)cc1 | inconclusive: 100 µM [inhibitor, single point] | –
CCCCN1C(=O)C(CC(=O)NCc2cccs2)CC(C(=O)N(C)C)=C1C (stereo unspecified) | – | inactive: 1.82%

SMILES | Potency | activity change, negative = inhibition
O=C(Nc1ccc(S(=O)(=O)Nc2ccc(F)cc2)cc1)c1ccc(CN2CCOCC2)cc1 | inconclusive: 28.2 µM [inhibitor, partial curve] | –
CC1(OC(=O)CCc2ccccc2)C(=O)C=C2C=C(c3ccc(C#N)cc3)N(CCN3CCOCC3)C=C2C1=O (stereo unspecified) | – | inactive: -6.79%
COc1ccccc1NC(=O)COC(=O)c1ccc([N+](=O)[O-])s1 | active: 11.2 µM | –
O=C(Nc1nnc(C(F)(F)F)s1)c1ccc(Br)s1 | inconclusive: 100 µM [inhibitor, single point] | –
Clc1ccc(-c2ccn[nH]2)cc1 | – | inactive: 3.66%
Cc1ccccc1CNCc1ccc2c(c1)OCO2 | inconclusive: 50.1 µM [inhibitor, partial curve] | –
COc1ccc(NC(=O)c2sc(=O)n(Cc3ccc(SC)cc3)c2C)cc1OC | inconclusive: 50.1 µM [inhibitor, partial curve, poor fit] | –
COc1cccc(/C=C/C(=O)OCC(=O)NC2CCCCCC2)c1 | – | inactive: 8.13%
CC(C)c1ccc(NC(=O)Nc2nc(C(N)CCc3ccccc3)cs2)cc1 (stereo unspecified) | – | inactive: -0.136%
CCOc1ccc(CN(C)C(=O)CN2C(=O)NC(c3ccccc3)(c3ccccc3)C2=O)cc1 | – | inactive: 2.32%
Oc1ccc(Br)cc1/C=N/n1c(-c2ccccc2)n[nH]c1=S | – | inactive: -13.3%
O=S(=O)(NCC(c1ccco1)N1CCN(c2ccccc2F)CC1)c1ccc(F)cc1 (stereo unspecified) | inconclusive: 79.4 µM [inhibitor, partial curve] | –
COc1ccc2nc3cc([N+](=O)[O-])ccc3c(NNc3ccc([N+](=O)[O-])cc3)c2c1 | – | inactive: -4.3%
CCN1/C(=C/C(C)=C/c2sc3ccccc3[n+]2CC)Sc2ccccc21 | inactive and inconclusive: 56.2 µM [inhibitor, partial curve] | –
Cc1ccc(CNc2ccc3c(c2)OCO3)cc1 | – | inactive: 9.21%
OCC[C@@H]1C[C@@H](O)[C@H](O)[C@@]2(CCc3ccccc3O2)O1 | – | inactive: 7.98%
CC(=O)NC(c1ccc(F)c(F)c1)c1nc(-c2ccccc2C)cs1 (stereo unspecified) | – | inactive: -11.3%
CC(C)Oc1ccc(Cn2c(=O)oc3ccccc32)cc1 | – | inactive: 18.7%
CCC(=O)Nc1cccc(-c2cn3cccc(C)c3n2)c1 | inconclusive: 31.6 µM [inhibitor, partial curve] | –
Brc1ccc2c(c1)OCCOCCOc1cc(Br)ccc1OCCOCCOCCO2 | – | inactive: -16.7%
Oc1ccccc1-c1nc(NCCN2CCOCC2)c2ccccc2n1 | inconclusive: 100 µM [inhibitor, single point] | –
CCOc1cc(/C=C(\CC(=O)O)c2nc3ccccc3s2)ccc1OC | – | inactive: 6.5%
Cc1ccc(CNC(=O)c2ccccc2N(C)S(C)(=O)=O)cc1 | inconclusive: 25.1 µM [inhibitor, partial curve] | –
